Test results: PubChem BioAssay (NCATS)
Several values for one entry are separate records, joined by “and”; a condition that tells them apart may be missing. Equal values may be shown once. The shares of active, inactive and inconclusive entries below differ from those in the screen. For part of these data: Potencies beside an inconclusive call are fits to weak or partial responses and may not hold up. Activity calls are given as the source filed them. Unless noted, the call rests on the fitted dose curve; in most records, active means well fitted curve in the direction sought with a large enough effect; inconclusive means small, poorly fitted or top-dose-only effect, or another doubt; inactive means no such curve, though single readings can be large; an effect the other way counts as inactive or inconclusive.

Assays:
[1] = Validation screen for small molecules that induce genotoxicity in human embryonic kidney (HEK293T) cells expressing luciferase-tagged ELG1 (AID 493106); settings: luminescence; series mostly up to 46.1 µM; further: potency means the concentration at half of the fitted maximal effect
In short: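 HEK293T cells expressing luciferase-tagged ELG1, 2,000 cells/well, exposed to compound 16 hr at 37 °C, 5% CO2. Luciferase read after ONE-Glo, 30 min at room temperature; increased signal indicates genetic stress.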

[2] = qHTS Assay for Identification of Small Molecule Agonists for Thrombopoietin (TPO) Signaling Pathway (AID 917); settings: TPO signaling pathway reporter cells, agonist qHTS, stimulated with TPO at its EC50; series mostly up to 38.5 µM; further: potency means the concentration at half of the fitted maximal effect
In short: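 We measured Glycoprotein IIb promoter–luciferase output in IL-3-starved Ba/F3 murine cells expressing the human TPO receptor after 24 hrs at 37 C with compounds and 26 pM TPO.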

[3] = biological target: Muscarinic acetylcholine receptor M1 (Rattus norvegicus) (UniProt P08482); experiment: qHTS Assay for Antagonists of Acetylcholine Muscarinic M1 Receptor: Kinetic Measurement of Intracellular Calcium Response (AID 943); settings: M1-expressing cells, kinetic intracellular calcium fluorescence; series mostly up to 35.3 µM; further: nearly all actives have a fitted effect of over 75% in size; further: potency means the concentration at half of the fitted maximal effect
UniProt P08482, sequence (P08482 whole entry, looked up): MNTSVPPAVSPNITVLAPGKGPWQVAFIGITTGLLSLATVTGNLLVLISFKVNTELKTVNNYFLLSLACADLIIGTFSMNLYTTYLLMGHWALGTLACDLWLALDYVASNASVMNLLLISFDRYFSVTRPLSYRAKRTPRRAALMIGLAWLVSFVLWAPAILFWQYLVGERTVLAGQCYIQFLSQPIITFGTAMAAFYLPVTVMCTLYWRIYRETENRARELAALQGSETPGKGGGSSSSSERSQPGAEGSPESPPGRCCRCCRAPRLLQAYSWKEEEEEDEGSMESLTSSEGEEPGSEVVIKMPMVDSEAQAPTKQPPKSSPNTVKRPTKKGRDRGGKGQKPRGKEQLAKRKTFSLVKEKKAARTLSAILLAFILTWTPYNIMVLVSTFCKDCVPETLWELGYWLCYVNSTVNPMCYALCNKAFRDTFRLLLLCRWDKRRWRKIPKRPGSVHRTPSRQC
In short: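 CHO cells expressing rat M1 receptor, Fluo-4 loaded, preincubated 10 min with compound, then stimulated with EC80 carbachol (100 nM final). Kinetic calcium fluorescence over 4 min; response taken as peak over basal signal.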

[4] = biological target: Muscarinic acetylcholine receptor M1 (Rattus norvegicus) (UniProt P08482); experiment: qHTS Assay for Antagonists of Acetylcholine Muscarinic M1 Receptor: Measurement of IP-One Response (AID 944); settings: CHO-M1 cells, IP-One HTRF, antagonist mode; series mostly up to 46.1 µM; further: potency means the concentration at half of the fitted maximal effect; nearly all actives have a fitted effect of over 75% in size
[5] = qHTS Assay for Lipid Storage Modulators (AID 1519; calls by dose curve; further: on the % scale 0 is the no-effect control and ±100 the full control effect); settings: Drosophila S3 cells, BODIPY lipid droplet/cell ratio, laser cytometry, cells loaded with oleic acid; activity change, negative = inhibition: at 57.5 µM (top of the series) unless noted
In short: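 Cells seeded at 5,000 per well were treated with compounds over a concentration series and loaded with oleic acid (400 uM, as added). Lipid droplet fluorescence (488 nm excitation, 500-530 nm channel) was read by laser-scanning cytometry and normalized to 20 uM Triacsin C.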

[6] = qHTS for differential inhibitors of proliferation of Plasmodium falciparum line 7G8 (AID 1815); settings: Plasmodium falciparum 7G8 proliferation inhibition; series mostly up to 28.7 µM;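 further: parasite growth measured after three days of incubation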; further: potency means the concentration at half of the fitted maximal effect;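 on activity change, negative = inhibition: plate controls were vehicle wells for no effect and reference inhibitor wells for full effect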
[7] = Quantitative high throughput screen for delayed death inhibitors of the malarial parasite plastid, 48 hour incubation (AID 488752); settings: Plasmodium falciparum growth; series mostly up to 28.7 µM; further: nearly all actives have a fitted effect of over 65% in size; further: potency means the concentration at half of the fitted maximal effect; on activity change, negative = inhibition: on the % scale 0 is the no-effect control and ±100 the full control effect
In short: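 Erythrocytes infected with firefly luciferase-expressing P. falciparum (2% hematocrit, 0.1% parasitemia) cultured with compound for 48 h at 37 C, 5% CO2, in RPMI 1640/0.5% Albumax. Growth inhibition read as loss of luminescence.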

[8] = Cytometry Cell-Based qHTS for Inhibitors of the mTORC1 Signaling Pathway in MEF cells (AID 2668); settings: mTORC1 pathway readout; series mostly up to 38.3 µM; further: potency means the concentration at half of the fitted maximal effect;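 on activity change, negative = inhibition: Tsc2-/- p53-/- mouse embryonic fibroblasts stably re-expressing wild-type Tsc2; percent cells positive for phospho-rpS6 Ser235/236 relative to propidium iodide stain; plate controls were DMSO wells for no effect and 7.5 nM rapamycin control wells for full effect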
In short: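 Pathway inhibition in WT Tsc2-rescued Tsc2-/-, p53-/- MEFs is measured as the Alexa-488 phospho-rpS6 to propidium iodide intensity ratio after 24 hrs of compound at 37 degree Celsius. PI-stained cell number gives viability.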

[9] = qHTS for differential inhibitors of proliferation of Plasmodium falciparum line Dd2 (AID 1882); settings: Potency: Plasmodium falciparum Dd2 proliferation inhibition; series mostly up to 28.7 µM; further: potency means the concentration at half of the fitted maximal effect; nearly all actives have a fitted effect of over 65% in size
In short: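 Dd2-infected erythrocytes (0.3% parasitemia, 2.5% hematocrit final) incubated with compound 72 h at 37 C, 5% CO2; lysed with saponin/Triton buffer containing SYBR Green I, incubated overnight in the dark, then read by fluorescence (485/535 nm). Normalized to 0.29 uM artemisinin and DMSO.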

[10] = biological target: D(1A) dopamine receptor (Homo sapiens) (UniProt P21728); experiment: HTS Assay for Allosteric Agonists of the Human D1 Dopamine Receptor: Primary Screen for Antagonists (AID 488983); settings: D1 receptor cell assay, antagonist mode, qHTS titration; activity change, negative = inhibition: at 41.8 µM (top of the series);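 further: calcium flux response to an EC80 dopamine challenge measured with no-wash dye; potency means the concentration at half of the fitted maximal effect; nearly all actives have a fitted effect of over 65% in size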
UniProt P21728, sequence (P21728 whole entry, looked up): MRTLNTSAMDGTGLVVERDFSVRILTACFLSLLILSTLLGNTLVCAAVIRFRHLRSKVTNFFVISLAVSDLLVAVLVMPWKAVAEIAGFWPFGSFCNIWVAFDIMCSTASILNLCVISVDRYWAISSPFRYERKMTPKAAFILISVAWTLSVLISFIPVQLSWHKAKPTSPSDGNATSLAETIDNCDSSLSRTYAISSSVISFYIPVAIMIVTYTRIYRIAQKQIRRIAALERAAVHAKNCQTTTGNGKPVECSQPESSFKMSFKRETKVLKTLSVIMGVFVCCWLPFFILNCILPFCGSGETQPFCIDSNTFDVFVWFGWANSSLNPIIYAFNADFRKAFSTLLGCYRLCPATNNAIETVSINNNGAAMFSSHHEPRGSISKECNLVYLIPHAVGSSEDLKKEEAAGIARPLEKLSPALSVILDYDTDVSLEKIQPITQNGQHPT
In short: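 Tetracycline-induced HEK293 T-REx D1 line, force-coupled to calcium flux, read with no-wash calcium dye. Compound added after 10 s baseline, read 180 s for agonism, then EC80 dopamine added and read a further 180 s.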

[11] = biological target: Ubiquitin carboxyl-terminal hydrolase 1 (Homo sapiens) (UniProt O94782); experiment: Inhibitors of USP1/UAF1: Pilot qHTS (AID 504865); settings: purified USP1/UAF1, Ub-rhodamine cleavage fluorescence; series mostly up to 114 µM;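 further: rhodamine fluorescence freed from ubiquitin-rhodamine substrate followed over time; potency means the concentration at half of the fitted maximal effect; nearly all actives have a fitted effect of over 35% in size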
UniProt O94782, sequence (O94782 whole entry, looked up): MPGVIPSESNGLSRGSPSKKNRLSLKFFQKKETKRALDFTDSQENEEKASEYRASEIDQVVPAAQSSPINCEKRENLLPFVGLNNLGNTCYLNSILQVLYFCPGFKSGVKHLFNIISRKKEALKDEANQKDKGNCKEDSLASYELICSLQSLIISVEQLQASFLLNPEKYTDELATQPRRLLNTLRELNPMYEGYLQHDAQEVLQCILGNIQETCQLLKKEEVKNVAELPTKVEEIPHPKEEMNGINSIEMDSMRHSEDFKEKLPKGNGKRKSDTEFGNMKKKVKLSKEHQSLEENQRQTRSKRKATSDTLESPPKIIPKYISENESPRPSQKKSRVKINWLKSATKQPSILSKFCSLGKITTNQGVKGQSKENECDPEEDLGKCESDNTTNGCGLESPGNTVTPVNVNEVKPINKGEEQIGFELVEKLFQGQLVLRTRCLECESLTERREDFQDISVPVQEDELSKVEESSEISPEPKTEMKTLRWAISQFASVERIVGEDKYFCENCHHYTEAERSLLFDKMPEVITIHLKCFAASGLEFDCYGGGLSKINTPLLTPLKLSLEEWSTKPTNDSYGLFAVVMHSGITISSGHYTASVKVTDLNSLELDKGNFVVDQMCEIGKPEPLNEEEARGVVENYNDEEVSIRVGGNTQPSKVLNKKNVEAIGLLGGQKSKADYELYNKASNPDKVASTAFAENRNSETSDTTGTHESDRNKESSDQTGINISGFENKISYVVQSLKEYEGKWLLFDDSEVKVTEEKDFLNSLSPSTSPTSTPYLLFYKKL
In short: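 Kinetic fluorescence assay: 1nM USP1/UAF1, 15 min compound preincubation, then 150nM Ub-Rho; 480/540 nm.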

[12] = NFAT Signaling Pathway (AID 444; active means well fitted curve in either direction with a large enough effect, not every such curve was filed as active; inconclusive means small, poorly fitted or top-dose-only effect, or another doubt;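 further: carbachol stimulus at about its EC50 of 1 µM final; on the % scale 0 is the no-effect control and ±100 the full control effect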); settings: Jurkat NFAT-bla M1, carbachol, beta-lactamase ratio, 5 h
In short: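 Read-out: CCF4 FRET ratio (460 nm/530 nm) after 1 h RT dye loading, used for %activity and AC50 from titration series. Cells: Jurkat NFAT-β-lactamase/M1 line, treated with compound plus 1 uM carbachol for 5 h, 37 °C.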

[13] = qHTS for differential inhibitors of proliferation of Plasmodium falciparum line W2 (AID 1883); settings: Potency: Plasmodium falciparum W2 proliferation inhibition; series mostly up to 28.7 µM;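 further: potency means the concentration at half of the fitted maximal effect; parasites grown with compound for 72 h before lysis and staining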
[14] = biological target: Glutaminase kidney isoform, mitochondrial (Homo sapiens) (UniProt O94925); experiment: qHTS for Inhibitors of Glutaminase (GLS): LOPAC Validation (AID 624146); settings: glutaminase enzyme activity inhibition; series mostly up to 46.1 µM; further: potency means the concentration at half of the fitted maximal effect; nearly all actives have a fitted effect of over 60% in size
UniProt O94925, sequence (O94925 whole entry, looked up, canonical isoform): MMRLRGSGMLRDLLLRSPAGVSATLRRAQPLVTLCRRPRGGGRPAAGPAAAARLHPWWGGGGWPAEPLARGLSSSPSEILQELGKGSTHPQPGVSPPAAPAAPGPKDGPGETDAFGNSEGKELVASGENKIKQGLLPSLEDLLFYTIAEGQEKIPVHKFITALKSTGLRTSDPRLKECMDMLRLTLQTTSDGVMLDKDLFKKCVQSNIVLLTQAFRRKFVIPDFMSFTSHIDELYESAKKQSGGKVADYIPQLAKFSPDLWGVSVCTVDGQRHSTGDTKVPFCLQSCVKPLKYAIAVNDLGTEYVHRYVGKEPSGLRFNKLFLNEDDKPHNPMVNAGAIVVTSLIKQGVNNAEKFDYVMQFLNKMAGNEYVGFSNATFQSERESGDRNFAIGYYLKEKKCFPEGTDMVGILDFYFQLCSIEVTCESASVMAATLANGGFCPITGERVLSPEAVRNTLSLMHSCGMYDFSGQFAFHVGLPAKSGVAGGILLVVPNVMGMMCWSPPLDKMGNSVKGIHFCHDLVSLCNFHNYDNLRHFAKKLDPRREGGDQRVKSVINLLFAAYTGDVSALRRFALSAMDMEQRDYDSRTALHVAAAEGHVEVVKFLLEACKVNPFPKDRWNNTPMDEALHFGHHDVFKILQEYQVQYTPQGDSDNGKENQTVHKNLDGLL
In short: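 Glutamate formation by hKGA was monitored fluorometrically using coupled glutamate oxidase, HRP and Amplex Red. Substrate was added as 1 mM L-glutamine solution; incubation was 30 min at RT after an initial read.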

[15] = qHTS Assay for Identifying Gametocytocidal Compounds (AID 743244); further: potency means the concentration at half of the fitted maximal effect; settings: P. falciparum 3D7 stage III-V gametocytes, alamarBlue, 72 h; max response: stronger effect = lower value
In short: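 Late gametocytes (III–V), P. falciparum 3D7; 72 h drug, then 24 h alamarBlue; resazurin reduction read by fluorescence.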

[16] = biological target: Mitogen-activated protein kinase 10 (Mus musculus) (UniProt Q61831); experiment: JNK3 AlphaScreen Assay (AID 530; active means well fitted curve in either direction with a large enough effect, not every such curve was filed as active; inconclusive means small, poorly fitted or top-dose-only effect, or another doubt;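 further: kinase came from lysate of stimulated human HepG2 cells; signal reports phosphorylation of biotinylated GST-cJun 1-79 at Ser73 with 10 µM ATP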; further: potency means the concentration at half of the fitted maximal effect; on activity change, negative = inhibition: on the % scale 0 is the no-effect control and ±100 the full control effect); settings: JNK3 lysate, c-Jun phosphorylation; activity change, negative = inhibition: at 57.1 µM (top of the series)
In short: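 Compound titrations were preincubated 15 minutes at room temperature with substrate, antibody and pre-activated JNK3-containing HepG2 lysate. Reactions were started with 10 uM ATP and stopped with EDTA-containing bead buffer for AlphaScreen detection.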

[17] = qHTS for differential inhibitors of proliferation of Plasmodium falciparum line HB3 (AID 1886); settings: Potency: Plasmodium falciparum HB3 proliferation inhibition; series mostly up to 28.7 µM;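 further: potency means the concentration at half of the fitted maximal effect; parasites grown with compound for 72 h before SYBR Green readout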
[18] = biological target: Ferritin light chain (Equus caballus) (UniProt P02791); experiment: qHTS Validation Assay for Identification of Novel General Anesthetics (AID 2323); settings: horse apoferritin, anesthetic-site fluorescent probe displacement; series mostly up to 76.9 µM; further: potency means the concentration at half of the fitted maximal effect
UniProt P02791, sequence (P02791 whole entry, looked up): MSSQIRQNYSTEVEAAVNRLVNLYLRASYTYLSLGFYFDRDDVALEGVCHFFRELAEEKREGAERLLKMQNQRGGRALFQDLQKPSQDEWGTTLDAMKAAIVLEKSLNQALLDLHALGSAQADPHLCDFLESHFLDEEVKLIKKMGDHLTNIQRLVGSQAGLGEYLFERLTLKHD
In short: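 Apoferritin from horse spleen (10 uM) was mixed with 1-aminoanthracene at 50% saturation in PBS, then compounds were added. After 10 min at room temperature, fluorescence was read (ex 380 nm, em 535 nm) and normalized to free-probe and complex controls.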
Tags describe the fitted curve by direction and shape.

With `CC(=O)/C(C)=N/O` the Potency [1] was “inactive”.

In the case of `CC(=O)NNC(=O)N1Cc2ccccc2Oc2ccc(Cl)cc21`, the Potency [2] was inconclusive: 6.31 µM [inhibitor, partial curve], the Potency [3] was inconclusive: 0.1 µM [inhibitor, full curve, poor fit] and the Potency [4] was inconclusive: 10 µM [inhibitor, partial curve, poor fit]. The Potency [5] was “inactive”, the Potency [6] was inconclusive: 12.6 µM [inhibitor, single point] and the Potency [7] was “inactive”.

With `O=C(O)CC1CCCc2ccccc2C1O` (stereo unspecified) the activity change, negative = inhibition [5] was inconclusive: 1.92%, the Potency [6] was “inactive” and the Potency [8] was “inactive”. The Potency [7] was “inactive”.

In the case of `C[C@@H](CN1CCC(Cc2ccccc2)CC1)[C@@H](O)c1ccc(O)cc1`, the Potency [9] was inconclusive: 11.2 µM [inhibitor, partial curve], the Potency [8] was inconclusive: 26.1 µM [falling, single point] and the Potency [7] was inconclusive: 6.57 µM [inhibitor, partial curve].

For `CSc1ccccc1N1CCN(CCCCCC(=O)NC2CCCc3ccccc32)CC1` (stereo unspecified), the Potency [8] was active: 11.7 µM and the Potency [10] was active: 2 µM.

With `CO/S(=N\S(=O)(=O)c1ccc(Cl)cc1)c1ccc([N+](=O)[O-])cc1` (stereo unspecified) the Potency [11] was active: 31.6 µM.

With `O=c1onc2n1-c1cc(Br)ccc1OC2` the activity change, negative = inhibition ([12]; at 38 µM (top of the series)) was inactive: 3.41%, the Potency [13] was inconclusive: 17.8 µM [inhibitor, single point] and the Potency [1] was “inactive”. The Potency [11] was inconclusive: 0.631 µM [inhibitor, full curve, poor fit].

In the case of `O=C(/C=C/c1ccc(O)c(O)c1)OCCc1ccccc1`, the Potency [9] was inconclusive: 11.2 µM [inhibitor, single point], the Potency [13] was active: 5.01 µM and the Potency [8] was active: 3.29 µM. For the same compound, the Potency [1] was active: 20.6 µM, the Potency [11] was inconclusive: 44.7 µM [inhibitor, partial curve] and inconclusive: 56.2 µM [inhibitor, partial curve, poor fit] and the Potency [14] was active: 0.891 µM. The Potency [15] was inconclusive: 1 µM [inhibitor, full curve].

In the case of `Nc1nc(Nc2ccccc2)nc2c1ncn2[C@@H]1O[C@H](CO)[C@@H](O)[C@H]1O`, the Potency [1] was inconclusive: 0.651 µM [activator, partial curve].

With `N#C/C(=C\c1ccc(O)c(O)c1)C(=O)NCCCc1ccccc1` the activity change, negative = inhibition ([12]; at 17.2 µM (top of the series)) was inconclusive: -44.1% [inhibitor], the activity change, negative = inhibition ([12]; at 38 µM (top of the series)) was inconclusive: -36.1% [inhibitor] and the Potency [16] was active: 10 µM. For the same compound, the activity change, negative = inhibition [16] was inconclusive: 9.9%, the Potency [2] was inconclusive: 1.58 µM [inhibitor, partial curve] and the Potency [3] was “inactive”. The Potency [4] was inconclusive: 11.2 µM [inhibitor, partial curve, poor fit], the Potency [9] was inconclusive: 11.2 µM [inhibitor, single point] and the Potency [17] was active: 12.6 µM. For the same compound, the Potency [18] was inconclusive: 31.6 µM [inhibitor, partial curve], the Potency [8] was inconclusive: 16.5 µM [falling, single point] and the Potency [7] was inconclusive: 10.4 µM [inhibitor, single point]. For the same compound, the Potency [10] was inconclusive: 31.6 µM [activator, single point], the Potency [11] was inconclusive: 56.2 µM [inhibitor, partial curve, poor fit] and the Potency [14] was inconclusive: 0.708 µM [inhibitor, full curve, poor fit].

For `CC(C)NCC(O)COc1cccc2ccccc12` (stereo unspecified), the Potency [9] was active: 8.91 µM, the Potency [17] was active: 12.6 µM and the Potency [15] was inconclusive: 5.62 µM [inhibitor, single point].

With `Clc1ccc(N2CCN(Cc3c[nH]c4ncccc34)CC2)cc1` the Potency [16] was inconclusive: 39.8 µM [inhibitor, single point], the activity change, negative = inhibition [16] was inconclusive: 31.9% [activator] and the Potency [3] was inconclusive: 17.8 µM [inhibitor, partial curve, poor fit]. The Potency [10] was inconclusive: 5.01 µM [inhibitor, partial curve] and the Potency [11] was active: 50.1 µM.

With `CCCCCCCCCCCCCCCC(=O)OC(CC(=O)O)C[N+](C)(C)C` (stereo unspecified) the Potency [5] was “inactive”, the Potency [13] was inconclusive: 11.2 µM [inhibitor, partial curve] and the Potency [18] was inconclusive: 20 µM [inhibitor, partial curve]. For the same compound, the Potency [8] was “inactive”, the Potency [10] was active: 5.62 µM and the Potency [11] was active: 50.1 µM.

For `NCCCCCCCCCCN`, the activity change, negative = inhibition ([12]; at 38 µM (top of the series)) was inactive: 0.00398%, the activity change, negative = inhibition [16] was inconclusive: -5.05% and the Potency [3] was inconclusive: 5.62 µM [inhibitor, partial curve, poor fit]. For the same compound, the Potency [13] was inconclusive: 11.2 µM [inhibitor, partial curve].

In the case of `CCCCCCCCCCCCCCCCCCNC(=O)OCC(COP(=O)([O-])OCC[n+]1ccsc1)OC` (stereo unspecified), the Potency [6] was inconclusive: 7.94 µM [inhibitor, single point], the Potency [13] was inconclusive: 17.8 µM [inhibitor, single point] and the Potency [18] was inconclusive: 39.8 µM [inhibitor, partial curve]. The Potency [11] was inconclusive: 20 µM [inhibitor, partial curve, poor fit].
